In publication PMC9911399, “Two distinct binding modes provide the RNA-binding protein RbFox with extraordinary sequence specificity”:
Positions count from the first letter of the chain named. The list shows a part of the results.

B1: UAGCAUG (DNA:RNA)
RNA: GGGAGACCGGAAUUCAGAUUGUCCUAGCAUGUUAAAUCCCGUCGUAGCCACCA
DNA 1: CAATCTGAATTCCGGTCTCCC
DNA 2: TGGTGGCTACGACGGGATT
B2: GCUGGAG (DNA:RNA)
RNA: B1 RNA with U25G, A26C, G27U, C28G, A29G, U30A
DNA 1: CAATCTGAATTCCGGTCTCCC
DNA 2: TGGTGGCTACGACGGGATT
B3: CAAGCUG (DNA:RNA)
RNA: B1 RNA with U25C, G27A, C28G, A29C
DNA 1: CAATCTGAATTCCGGTCTCCC
DNA 2: TGGTGGCTACGACGGGATT
B4: AUAGAAA (DNA:RNA)
RNA: B1 RNA with U25A, A26U, G27A, C28G, U30A, G31A
DNA 1: CAATCTGAATTCCGGTCTCCC
DNA 2: TGGTGGCTACGACGGGATT
B5: UGCUCGA (DNA:RNA)
RNA: B1 RNA with A26G, G27C, C28U, A29C, U30G, G31A
DNA 1: CAATCTGAATTCCGGTCTCCC
DNA 2: TGGTGGCTACGACGGGATT
B6: CUAAGUC (DNA:RNA)
RNA: B1 RNA with U25C, A26U, G27A, C28A, A29G, G31C
DNA 1: CAATCTGAATTCCGGTCTCCC
DNA 2: TGGTGGCTACGACGGGATT
B7: AAGGAAG (DNA:RNA)
RNA: B1 RNA with U25A, C28G, U30A
DNA 1: CAATCTGAATTCCGGTCTCCC
DNA 2: TGGTGGCTACGACGGGATT
B8: ACAGGAU (DNA:RNA)
RNA: GGGAGACCGGAAUUCAGAUUGUCCACAGGAUUUAAAUCCCGUCGUAGCCACCA
DNA 1: CAATCTGAATTCCGGTCTCCC
DNA 2: TGGTGGCTACGACGGGATT
B9: GACCUAU (DNA:RNA)
RNA: B8 RNA with A25G, C26A, A27C, G28C, G29U
DNA 1: CAATCTGAATTCCGGTCTCCC
DNA 2: TGGTGGCTACGACGGGATT
B10: UUAUAAC (DNA:RNA)
RNA: B8 RNA with A25U, C26U, G28U, G29A, U31C
DNA 1: CAATCTGAATTCCGGTCTCCC
DNA 2: TGGTGGCTACGACGGGATT
B11: ACUUUUU (DNA:RNA)
RNA: B8 RNA with A27U, G28U, G29U, A30U
DNA 1: CAATCTGAATTCCGGTCTCCC
DNA 2: TGGTGGCTACGACGGGATT
B12: ACCGCUC (DNA:RNA)
RNA: B8 RNA with A27C, G29C, A30U, U31C
DNA 1: CAATCTGAATTCCGGTCTCCC
DNA 2: TGGTGGCTACGACGGGATT
B13: GAUAUUA (DNA:RNA)
RNA: B1 RNA with U25G, G27U, C28A, A29U, G31A
DNA 1: CAATCTGAATTCCGGTCTCCC
DNA 2: TGGTGGCTACGACGGGATT
B14: UUACCUG (DNA:RNA)
RNA: B1 RNA with A26U, G27A, A29C
DNA 1: CAATCTGAATTCCGGTCTCCC
DNA 2: TGGTGGCTACGACGGGATT
B15: AAACAUC (DNA:RNA)
RNA: B1 RNA with U25A, G27A, G31C
DNA 1: CAATCTGAATTCCGGTCTCCC
DNA 2: TGGTGGCTACGACGGGATT
B16: UUGAUGG (DNA:RNA)
RNA: B1 RNA with A26U, C28A, A29U, U30G
DNA 1: CAATCTGAATTCCGGTCTCCC
DNA 2: TGGTGGCTACGACGGGATT
B17: CGCUUGC (DNA:RNA)
RNA: GGGAGACCGGAAUUCAGAUUGUCCCGCUUGCUUAAAUCCCGUCGUAGCCACCA
DNA 1: CAATCTGAATTCCGGTCTCCC
DNA 2: TGGTGGCTACGACGGGATT
B18: ACGAAUG (DNA:RNA)
RNA: B1 RNA with U25A, A26C, C28A
DNA 1: CAATCTGAATTCCGGTCTCCC
DNA 2: TGGTGGCTACGACGGGATT
B19: GCGCGAU (DNA:RNA)
RNA: B8 RNA with A25G, A27G, G28C
DNA 1: CAATCTGAATTCCGGTCTCCC
DNA 2: TGGTGGCTACGACGGGATT
B20: AUGAAAA (DNA:RNA)
RNA: B8 RNA with C26U, A27G, G28A, G29A, U31A
DNA 1: CAATCTGAATTCCGGTCTCCC
DNA 2: TGGTGGCTACGACGGGATT

Molecular target: T1, RBFOX1 RRM RbFoxmut (Fox-RRM*) (Homo sapiens, UniProt Q9NWB1 109-208, R118D;E147R;N151S;E152T)
T1 sequence: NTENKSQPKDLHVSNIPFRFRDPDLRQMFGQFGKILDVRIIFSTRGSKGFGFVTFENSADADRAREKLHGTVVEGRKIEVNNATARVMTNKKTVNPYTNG
Assay: EMSA; HiTS-Eq, 1 nM pool, 10 min; buffer printed only for the single-RNA assays: 10 mM Tris pH 7.5, 150 mM NaCl, 3.4 mM EDTA, 0.001% NP-40, 30 C
Details: tags: His6 N-terminal (pET28a); label: 5' 32P
In short: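 A pool of RNA with 7 randomized nucleotides, 5′-radiolabelled and with DNA-annealed flanks, was equilibrated at 1 nM for 10 min in 50 µL with purified RbFox RRM, wild type or mutant, across increasing protein concentrations. Free RNA was separated by 8% native PAGE, excised, reverse-transcribed, barcoded by PCR and sequenced. Relative association constants were obtained from read-count changes of each RNA species versus the control reaction and normalised to the cognate motif.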

Binder	binding signal
B1	0.819 KA relative to UGCAUGU
B2	0.114 KA relative to UGCAUGU
B3	0.0763 KA relative to UGCAUGU
B4	0.13 KA relative to UGCAUGU
B5	0.186 KA relative to UGCAUGU
B6	0.0682 KA relative to UGCAUGU
B7	0.113 KA relative to UGCAUGU
B8	0.0995 KA relative to UGCAUGU
B9	0.119 KA relative to UGCAUGU
B10	0.0913 KA relative to UGCAUGU
B11	0.0998 KA relative to UGCAUGU
B12	0.0667 KA relative to UGCAUGU
B13	0.0958 KA relative to UGCAUGU
B14	0.106 KA relative to UGCAUGU
B15	0.0492 KA relative to UGCAUGU
B16	0.101 KA relative to UGCAUGU
B17	0.162 KA relative to UGCAUGU
B18	1.2 KA relative to UGCAUGU
B19	0.0848 KA relative to UGCAUGU
B20	0.116 KA relative to UGCAUGU
